The list shows a part of the results. The list includes weakly bound sequences.

The assay deals with T1, MBP-FoxP3dN (UniProt Q99JB6).
T1 sequence: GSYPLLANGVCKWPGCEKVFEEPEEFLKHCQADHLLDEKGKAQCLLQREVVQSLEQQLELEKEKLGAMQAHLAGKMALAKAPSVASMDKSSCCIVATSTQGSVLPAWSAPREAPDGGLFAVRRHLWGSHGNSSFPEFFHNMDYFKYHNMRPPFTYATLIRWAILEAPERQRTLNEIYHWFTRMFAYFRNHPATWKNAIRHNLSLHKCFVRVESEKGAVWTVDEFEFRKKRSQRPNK
As to the kind of experiment: PD-seq (MBP pull-down with sequencing). As to conditions: 20 mM Tris-HCl pH 7.5, 100 mM NaCl, 1.5 mM MgCl2, 0.4 uM protein, 0.1 uM dsDNA library, 30 min, room temperature, amylose pull-down; high values mean tight binding; double strand, one strand shown.
As to “GATGATTGTTCTCCCAGCTGATGAATTACGTCCTTCGAGTAAACAAATTTTCCTAATCTTTCTGTTCAAGCGCCATCTAC”, the binding signal (RPM ratio (pull-down/input)) is 0.518.

Consider “GATGATTGTTCTCCCAGCTGATGAATTCCCTACGTCGAGTAAACAAATTTTCCTAATCTTTCTGTTCAAGCGCCATCTAC”, for which the binding signal (RPM ratio (pull-down/input)) amounted to 0.253.

As for “GATGATTGTTCTCCCAGCTGATGAATTACCATAGTCGAGTAAACAAATTTTCCTAATCTTTCTGTTCAAGCGCCATCTAC”, the binding signal (RPM ratio (pull-down/input)) stood at 0.318.

Consider “GATGATTGTTCTCCCAGCTGATGAATTGACTTAGTCGAGTAAACAAATTTTCCTAATCTTTCTGTTCAAGCGCCATCTAC”, for which the binding signal (RPM ratio (pull-down/input)) came to 0.369.

On to “GATGATTGTTCTCCCAGCTGATGAATTCTGATTCTCGAGTAAACAAATTTTCCTAATCTTTCTGTTCAAGCGCCATCTAC”, for which the binding signal (RPM ratio (pull-down/input)) worked out at 0.976.

With “GATGATTGTTCTCCCAGCTGATGAATTACTTTCTTCGAGTAAACAAATTTTCCTAATCTTTCTGTTCAAGCGCCATCTAC”, the binding signal (RPM ratio (pull-down/input)) stood at 0.388.

For “GATGATTGTTCTCCCAGCTGATGAATTAGTTCGTTCGAGTAAACAAATTTTCCTAATCTTTCTGTTCAAGCGCCATCTAC”, the binding signal (RPM ratio (pull-down/input)) was determined as 0.685.

With “GATGATTGTTCTCCCAGCTGATGAATTCGCTAGATCGAGTAAACAAATTTTCCTAATCTTTCTGTTCAAGCGCCATCTAC”, the binding signal (RPM ratio (pull-down/input)) worked out at 0.323.

In the case of “GATGATTGTTCTCCCAGCTGATGAATTACTTCGTTCGAGTAAACAAATTTTCCTAATCTTTCTGTTCAAGCGCCATCTAC”, the binding signal (RPM ratio (pull-down/input)) was determined as 0.322.

Consider “GATGATTGTTCTCCCAGCTGATGAATTCGCCGAGTCGAGTAAACAAATTTTCCTAATCTTTCTGTTCAAGCGCCATCTAC”, for which the binding signal (RPM ratio (pull-down/input)) is 0.196.

“GATGATTGTTCTCCCAGCTGATGAATTCATCCATTCGAGTAAACAAATTTTCCTAATCTTTCTGTTCAAGCGCCATCTAC”: the binding signal (RPM ratio (pull-down/input)) came to 0.411.

Regarding “GATGATTGTTCTCCCAGCTGATGAATTTTGATCTTCGAGTAAACAAATTTTCCTAATCTTTCTGTTCAAGCGCCATCTAC”, the binding signal (RPM ratio (pull-down/input)) stood at 0.415.

As to “GATGATTGTTCTCCCAGCTGATGAATTTAACCTGTCGAGTAAACAAATTTTCCTAATCTTTCTGTTCAAGCGCCATCTAC”, the binding signal (RPM ratio (pull-down/input)) came to 0.318.

On to “GATGATTGTTCTCCCAGCTGATGAATTTCCCGCATCGAGTAAACAAATTTTCCTAATCTTTCTGTTCAAGCGCCATCTAC”, for which the binding signal (RPM ratio (pull-down/input)) worked out at 0.913.

In the case of “GATGATTGTTCTCCCAGCTGATGAATTATTGGCGTCGAGTAAACAAATTTTCCTAATCTTTCTGTTCAAGCGCCATCTAC”, the binding signal (RPM ratio (pull-down/input)) is 0.837.

Consider “GATGATTGTTCTCCCAGCTGATGAATTCTCCCTATCGAGTAAACAAATTTTCCTAATCTTTCTGTTCAAGCGCCATCTAC”, for which the binding signal (RPM ratio (pull-down/input)) turned out to be 0.281.

With “GATGATTGTTCTCCCAGCTGATGAATTAGTAATTTCGAGTAAACAAATTTTCCTAATCTTTCTGTTCAAGCGCCATCTAC”, the binding signal (RPM ratio (pull-down/input)) is 0.84.

As for “GATGATTGTTCTCCCAGCTGATGAATTACGAGGTTCGAGTAAACAAATTTTCCTAATCTTTCTGTTCAAGCGCCATCTAC”, the binding signal (RPM ratio (pull-down/input)) stood at 0.392.

Take “GATGATTGTTCTCCCAGCTGATGAATTGACCAGCTCGAGTAAACAAATTTTCCTAATCTTTCTGTTCAAGCGCCATCTAC”: the binding signal (RPM ratio (pull-down/input)) was determined as 0.22.

“GATGATTGTTCTCCCAGCTGATGAATTGCCAGCTTCGAGTAAACAAATTTTCCTAATCTTTCTGTTCAAGCGCCATCTAC”: the binding signal (RPM ratio (pull-down/input)) worked out at 0.516.

Regarding “GATGATTGTTCTCCCAGCTGATGAATTCGGCTTGTCGAGTAAACAAATTTTCCTAATCTTTCTGTTCAAGCGCCATCTAC”, the binding signal (RPM ratio (pull-down/input)) is 2.89.

Turning to “GATGATTGTTCTCCCAGCTGATGAATTCCAGCGCTCGAGTAAACAAATTTTCCTAATCTTTCTGTTCAAGCGCCATCTAC”, the binding signal (RPM ratio (pull-down/input)) came out at 0.321.

As for “GATGATTGTTCTCCCAGCTGATGAATTAAATTACTCGAGTAAACAAATTTTCCTAATCTTTCTGTTCAAGCGCCATCTAC”, the binding signal (RPM ratio (pull-down/input)) stood at 1.21.

Take “GATGATTGTTCTCCCAGCTGATGAATTTCGCATCTCGAGTAAACAAATTTTCCTAATCTTTCTGTTCAAGCGCCATCTAC”: the binding signal (RPM ratio (pull-down/input)) stood at 6.74.

“GATGATTGTTCTCCCAGCTGATGAATTGTGCCCATCGAGTAAACAAATTTTCCTAATCTTTCTGTTCAAGCGCCATCTAC”: the binding signal (RPM ratio (pull-down/input)) was 2.27.

Take “GATGATTGTTCTCCCAGCTGATGAATTTATTTAGTCGAGTAAACAAATTTTCCTAATCTTTCTGTTCAAGCGCCATCTAC”: the binding signal (RPM ratio (pull-down/input)) worked out at 5.5.

For the sequence “GATGATTGTTCTCCCAGCTGATGAATTCACCGGCTCGAGTAAACAAATTTTCCTAATCTTTCTGTTCAAGCGCCATCTAC”, the binding signal (RPM ratio (pull-down/input)) came out at 0.214.

For “GATGATTGTTCTCCCAGCTGATGAATTACCGTAGTCGAGTAAACAAATTTTCCTAATCTTTCTGTTCAAGCGCCATCTAC”, the binding signal (RPM ratio (pull-down/input)) is 0.374.

With “GATGATTGTTCTCCCAGCTGATGAATTAGTTTTGTCGAGTAAACAAATTTTCCTAATCTTTCTGTTCAAGCGCCATCTAC”, the binding signal (RPM ratio (pull-down/input)) was determined as 4.7.

Regarding “GATGATTGTTCTCCCAGCTGATGAATTAATTGTGTCGAGTAAACAAATTTTCCTAATCTTTCTGTTCAAGCGCCATCTAC”, the binding signal (RPM ratio (pull-down/input)) stood at 4.27.

With “GATGATTGTTCTCCCAGCTGATGAATTAGCTGGCTCGAGTAAACAAATTTTCCTAATCTTTCTGTTCAAGCGCCATCTAC”, the binding signal (RPM ratio (pull-down/input)) was found to be 0.476.
